# Experimental data taken from PMC4336329 (PLoS ONE, 2015).
# Hit rate of the full screen: of about 310,000 compounds, about 2,200 (0.71%) showed an effect of 50% or more. The effect is printed as a negative number. This is one part of the list. Where a SMILES comes first, the peptide text is derived from it. The star is where a group is joined. Boc = CC(C)(C)OC(=O)*
# Target: human ether-à-go-go-related gene (hERG) potassium channel (human, UniProt Q12809)
# Assay: primary screen, population patch clamp on CHO cells stably expressing hERG
# Chain of human ether-à-go-go-related gene (hERG) potassium channel (Q12809 whole entry, looked up): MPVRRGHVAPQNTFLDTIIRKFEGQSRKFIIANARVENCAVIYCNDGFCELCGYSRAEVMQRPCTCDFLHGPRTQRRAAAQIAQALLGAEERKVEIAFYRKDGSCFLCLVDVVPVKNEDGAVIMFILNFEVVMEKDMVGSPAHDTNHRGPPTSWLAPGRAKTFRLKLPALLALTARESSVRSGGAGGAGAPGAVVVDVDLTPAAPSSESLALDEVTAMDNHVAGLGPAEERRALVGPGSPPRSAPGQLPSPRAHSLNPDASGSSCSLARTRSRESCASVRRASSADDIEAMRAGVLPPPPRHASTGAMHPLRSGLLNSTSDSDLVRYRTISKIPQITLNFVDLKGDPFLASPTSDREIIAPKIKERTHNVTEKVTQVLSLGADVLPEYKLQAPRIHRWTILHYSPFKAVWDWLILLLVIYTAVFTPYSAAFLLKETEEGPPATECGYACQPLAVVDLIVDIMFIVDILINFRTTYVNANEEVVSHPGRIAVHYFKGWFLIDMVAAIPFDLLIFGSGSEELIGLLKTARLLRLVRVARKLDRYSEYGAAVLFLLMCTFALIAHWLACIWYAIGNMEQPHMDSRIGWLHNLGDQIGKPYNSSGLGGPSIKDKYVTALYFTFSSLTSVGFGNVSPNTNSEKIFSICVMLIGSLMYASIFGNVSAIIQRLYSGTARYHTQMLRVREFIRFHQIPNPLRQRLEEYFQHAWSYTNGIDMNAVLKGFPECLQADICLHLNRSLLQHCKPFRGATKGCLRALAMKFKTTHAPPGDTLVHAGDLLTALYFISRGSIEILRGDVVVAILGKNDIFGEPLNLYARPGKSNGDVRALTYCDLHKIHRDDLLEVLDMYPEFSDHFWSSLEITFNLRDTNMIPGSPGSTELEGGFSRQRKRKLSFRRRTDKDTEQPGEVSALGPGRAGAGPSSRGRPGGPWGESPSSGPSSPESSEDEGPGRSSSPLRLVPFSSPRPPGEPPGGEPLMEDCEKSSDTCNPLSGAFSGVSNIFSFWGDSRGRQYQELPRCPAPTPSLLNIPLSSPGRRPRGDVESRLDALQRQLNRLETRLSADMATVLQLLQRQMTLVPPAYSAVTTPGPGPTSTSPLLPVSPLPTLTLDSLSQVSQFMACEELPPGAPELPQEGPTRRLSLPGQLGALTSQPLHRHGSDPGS
row,Structure (SMILES),"hERG current change (%, negative = inhibition) at 1uM"
1,O=C(CSc1nnnn1-c1ccccc1)N1CCc2ccccc21,10.1%
2,O=C1CC(c2ccco2)CC(O)=C1C=NCC1CCNCC1 (stereo not shown),13.4%
3,CC(C)(c1ccc(O)cc1)c1ccc(O)cc1,7.3%
4,O=C(N/C=C/n1cnc2cc(C(F)(F)F)ccc21)c1ccccc1F,10.9%
5,COc1cc(C(C)=O)ccc1OCC(=O)c1cc(C)n(C2CC2)c1C,10.1%
6,Br.CCSC(=Nc1ccccc1)N1CCOCC1,12.8%
7,CCOc1ccc(N(CC(=O)NCc2ccco2)S(C)(=O)=O)cc1,12.2%
8,C=CCN1C=C/C(=C\C=C(C#N)C#N)c2ccccc21,-10.9%
9,COc1cccc(C(C)NC(=O)c2c(F)cccc2Cl)c1 (stereo not shown),4.36%
10,N#Cc1ccsc1NC(=O)CSc1ncn[nH]1,5.49%
11,CNC(=O)c1ccc(-n2cccn2)nc1,10.9%
12,CC(Oc1ccc([N+](=O)[O-])cc1Cl)C(=O)Nc1ccc(C(N)=O)cc1 (stereo not shown),6.23%
13,O=C(O)c1cc(O)ccc1NC(=O)C1CCCO1 (stereo not shown),5.02%
14,CN(C)c1ccc(/C=N\NC(=O)c2csnn2)cc1,15%
15,Cc1ccc2c(c1)N(CC(=O)NCc1cccs1)C(=O)CO2,9.71%
16,CCOC(=O)N1CCN(C(=O)C2CCN(C(=O)c3ccc([N+](=O)[O-])cc3)CC2)CC1,-26.9%
17,CCOC(=O)COc1cccc2c(=O)n(CC(=O)NCc3ccc(F)cc3)ccc12,11%
18,COc1ccc(S(=O)(=O)N2CCCCC2C(=O)O)cc1OC (stereo not shown),23.4%
19,COc1ccccc1CNC(=O)CSc1ccc(-c2cccc([N+](=O)[O-])c2)nn1,-2.8%
20,O=C(CN1CCCc2ccccc21)NC(=O)NC1CCCCC1,-20.9%
21,C/C(Cc1ccccc1)=N\NC(=O)CNC(=O)c1ccc2c(c1)OCCO2,6.84%
22,Cc1ccccc1C(=O)N1CCC(C(=O)N2CCCc3ccccc32)CC1,3.32%
23,O=C(c1ccc(-c2cccc(C(F)(F)F)c2)o1)N1CCN(c2ccccc2O)CC1,13.7%

row,Structure (SMILES),"hERG current change (%, negative = inhibition) at 1uM"
1,CCN(CC(=O)Nc1cc(Cl)ccc1C)C(=O)COc1ccccc1F,14.4%
2,COCCN1C(=O)N[C@@H](c2cccs2)C(C(=O)OC)=C1C,14.3%
3,CC(=O)Oc1cccc(/C=c2\sc3nc(-c4ccco4)nn3c2=O)c1,16.2%
4,Cc1n[nH]c(=O)nc1NCc1ccc(Cl)cc1,9.59%
5,Cc1cccc(-n2nc([N+](=O)[O-])c(=NC3CCN(Cc4ccccc4)CC3)n2O)c1,-55.4%
6,O=c1c2cn[nH]c2nc(SCc2ccc3c(c2)OCCO3)n1-c1ccccc1,9.07%
7,O=C(NNC(=O)C1CCN(Cc2ccccc2)CC1)c1cccc(Cl)c1,8.3%
8,Cc1cc(S(=O)(=O)N2CCOCC2)ccc1OCC(=O)Nc1cccc(C(F)(F)F)c1,20%
9,COCCNC(=O)C1Cc2c(ccc3ccccc23)O1 (stereo not shown),1.33%
10,CCOC(=O)C(NCCc1ccccc1)(NC(=O)CC)C(F)(F)F (stereo not shown),3.41%
11,O=C(C1CCCN(S(=O)(=O)Cc2ccccc2)C1)N1CCCCC1 (stereo not shown),5.51%
12,Cc1cc(C)c(C)c(S(=O)(=O)N2CCSCC2)c1C,13.9%
13,O=C(Nc1cccc(F)c1)c1ccc(S(=O)(=O)N2CCCCC2)cc1,17.7%
14,CC1=NN(c2ccc(S(=O)(=O)O)cc2Cl)C(=O)C1,12.4%
15,O=C1C2(c3ccccc3)CN(CCCO)CC1(c1ccccc1)CN(CCCO)C2,-21.1%
16,O=C(CSc1ccc2c(c1)OCCO2)Nc1ccc(Cl)cn1,20.4%
17,CCOC(=O)c1sc(NCc2ccco2)c(-c2nc3ccccc3s2)c1N,3.15%
18,Cc1ccc(NC(=O)c2ccncc2)cc1S(=O)(=O)N(C)C,0.0196%
19,CCCC(=O)N(CCN1CCOCC1)c1nc2cc(C)c(C)cc2s1.Cl,8.35%
20,O=C(CCn1nnnc1CN1CCOCC1)N1CCC(c2cccc(Cl)c2)C1 (stereo not shown),1.82%
21,Cc1cc(C)c(C(=O)N2CCC3(CC2)OCCO3)c(C)c1,15.3%
22,CCN(CC)CC.COc1cccc(-n2c(=S)sc3c(=O)n(-c4ccccc4OC)c(=S)[nH]c32)c1,14.7%
23,COC(=O)CN1C(=O)COc2ccc(S(=O)(=O)NCc3ccc(Cl)cc3)cc21,-4.94%

row,Structure (SMILES),"hERG current change (%, negative = inhibition) at 1uM"
1,CC1CCN(C(=O)Cn2nnc(-c3ccc([N+](=O)[O-])cc3)n2)CC1,-8.27%
2,Cc1nc2ccc(NC(=O)NCCCO)cc2s1,4.95%
3,NC(=O)c1cc(S(=O)(=O)NCc2cccs2)cs1,12.5%
4,N#CCCN1CCC(NC(=O)OCc2ccccc2)CCC1=O (stereo not shown),-9.77%
5,CSCCC(NC(=O)c1ccccc1Cl)C(=O)NC1CCN(Cc2ccccc2)CC1 (stereo not shown),-15.8%
6,N#C/C(=C/c1ccc(N2CCCC2)c([N+](=O)[O-])c1)c1nc2ccccc2[nH]1,11%
7,C/C=C/c1ccc(OCC(=O)Nc2ccc(C(N)=O)cc2)c(OC)c1,11.5%
8,COc1ccc(Nc2nc(CC(C)=O)ns2)cc1OC,5.22%
9,Cc1c(O)cc2n(c1=O)-c1ccc(Cl)cc1C2(C)C,13%
10,CCc1ccc2[nH]c(=O)c(C(c3nnnn3Cc3ccco3)N3CCC(C)CC3)cc2c1 (stereo not shown),2.95%
11,CCCOc1ccc(N2C(=O)CC(NCCCN3CCC(C(N)=O)CC3)C2=O)cc1 (stereo not shown),-12.5%
12,O=C(COc1ccc(S(=O)(=O)NC2CCCCC2)cc1)NCC1CCCO1 (stereo not shown),8.78%
13,O=C(CSc1ccc(-c2cccnc2)nn1)Nc1ccc(F)cc1,1.22%
14,CCN(CC)S(=O)(=O)c1ccc(N2CC(C(=O)N3CCOCC3)CC2=O)cc1 (stereo not shown),2.06%
15,Cc1cccc(NC(=O)C(=O)NCC2CCCN2S(=O)(=O)c2cccs2)c1C (stereo not shown),13.7%
16,O=C(NCc1ccccc1CN1CCCC1)C1CCN(S(=O)(=O)c2ccc(Cl)cc2)CC1,-28.5%
17,O=S1(=O)N=C(N/N=C/C=C/c2ccccc2)c2ccccc21,7.24%
18,Cc1occc1C(=O)NNC(=O)CN1C(=O)NC(C)(c2ccccc2)C1=O (stereo not shown),16.9%
19,CCCCCCOC(=O)NCC(O)c1ccccc1 (stereo not shown),2.22%
20,O=C(C1CCCN(S(=O)(=O)c2cccs2)C1)N1CCN(C2CCCCC2)CC1 (stereo not shown),3.62%
21,OC(CNC1Cc2ccccc2C1)COc1ccc(Cl)cc1 (stereo not shown),-11.2%
22,Cc1ccc(NC(=S)c2ccccc2)cc1,14.2%
23,COC(=O)c1ccc(C(C2C(=O)CC(C)(C)CC2=O)C2C(=O)CC(C)(C)CC2=O)cc1,15%

row,Structure (SMILES),"hERG current change (%, negative = inhibition) at 1uM"
1,CC(C(=O)Nc1ccccc1)N(C)Cc1cccs1 (stereo not shown),6.69%
2,CCc1nc(NCc2ccccn2)c2oc3ccccc3c2n1.Cl,7.35%
3,Cl.O=C(COc1ccccc1)N1CCN(CC(O)COc2ccccc2)CC1 (stereo not shown),-24.5%
4,CCOC(=O)C1CCN(Cc2ccc(Cl)nc2)CC1,11.6%
5,Cc1c(C)n2c3c(cccc13)CC2,0.614%
6,Cn1cc(C(=O)N/N=C/C=C/c2ccccc2)ccc1=O,7.6%
7,Cc1ccc(C)c(COC(=O)c2cc(S(=O)(=O)N3CCCCC3)ccc2N2CCOCC2)c1,9.45%
8,Cc1ccc(C)c(NC(=O)CCN2CCCCC2)c1,11.6%
9,CCC(=O)Nc1nonc1-c1nc2ccccc2n1Cc1ccccc1,7.36%
10,CC(NC(=O)C(NC(=O)C1CCCN1C(=O)OC(C)(C)C)C(C)C)C(N)=O (stereo not drawn) (Boc-Pro-Val-Ala-NH2; configuration not given here),3.29%
11,NNC(=O)c1ccc(N2CCCCCC2)c([N+](=O)[O-])c1,6.74%
12,O=C1NC(=O)N(c2ccccc2)C(=O)/C1=C/c1ccc(Sc2ccccc2)o1,17.2%
13,Cc1cc(Cl)ccc1OCC(=O)N1CCN(c2ncccn2)CC1,-8.29%
14,NNC(=O)c1cccc(COc2ccc3c(c2)CCC3)c1,10.6%
15,O=C(O)c1ccccc1Oc1ccc(Oc2ccccc2)cc1,14.9%
16,Cc1ccc(CC(CC(=O)O)C(=O)NC2CCCCC2)cc1 (stereo not shown),-7.37%
17,CCOC(=O)CN1N=C(/C=C/c2ccc(C)cc2)CCC1=O,12.2%
18,CN(C)CCCNC(=O)c1cc2sc3ccccc3c2s1.Cl,5.18%
19,COc1ccccc1CNC(=O)CSc1ccc(-c2ccncc2)nn1,9.96%
20,COC(=O)C1C(=O)c2c([nH]c(C(=O)OC3CCCCC3)c2C)CC1C (stereo not shown),9.81%
21,O=C(C1=C(O)C(=O)N(c2ncccn2)C1c1ccc(Cl)c(Cl)c1)c1ccco1 (stereo not shown),9.84%
22,c1ccc(CCc2nn3c(Cn4nnc5ccccc54)nnc3s2)cc1,-14.3%
